According to PubChem BioAssay AID1745845 (National Center for Advancing Translational Sciences (NCATS), 2022):
In all, about 360,000 compounds went through this assay and about 2,600 (0.72%) were called active. Inconclusive results, whose numbers are uncertain, are shown with a selection of clear calls. The call rests on the fitted dose curve; in most records, active means well fitted inhibition curve with a large enough effect; inconclusive means small, poorly fitted or top-dose-only effect; inactive means no such curve, though single readings can be large or run the other way. Where the call is inconclusive, the potency comes from a doubtful curve fit.
On the % scale 0 is the no-effect control and ±100 the full control effect; potency means the concentration at half of the fitted maximal effect; tags describe the fitted curve by direction and shape.

Experiment: Primary qHTS for Inhibitors of ATXN expression; further: nearly all actives have a fitted effect of over 55% in size
Details: HEK-293 ATXN2-luciferase reporter, luminescence, 24 h; series mostly up to 57 µM
Method in brief: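 ATXN2-luciferase reporter cells (luciferase flanked by upstream and downstream ATXN2 gene portions) were treated 24 h at 37 °C with compounds at up to 57 uM. SteadyGlo luminescence gave expression; GF-AFC fluorescence gave viability.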
In the case of `CC1CCCCN1C(=O)c1cc2nc(-c3ccccc3)cc(-c3ccccc3)n2n1` (stereo not drawn), the Potency is reported as inconclusive: 31.6 µM [inhibitor, single point]. With `CCOC(=O)/C=C/C(=O)Nc1ccc(S(=O)(=O)Nc2c(C)cc(C)cc2C)cc1` the Potency was inconclusive: 39.8 µM [inhibitor, single point]. With `Cc1ccccc1OCc1ccc(-c2nc(C#N)c(NCc3cccnc3)o2)o1` the Potency was active: 31.6 µM. With `COc1ccc(/C(C)=N/NC(=O)c2cccc(S(=O)(=O)N3CCCC3)c2)c(O)c1` the Potency was inconclusive: 1.12 µM [inhibitor, single point]. In the case of `O=C(CCc1ccccc1)NNC(=S)NC(=O)c1ccccc1`, the Potency is reported as inconclusive: 12.6 µM [inhibitor, partial curve, poor fit]. For `COc1ccc([C@H]2CC(=O)C=C(/C=C/Cc3ccccc3)C2)cc1`, the Potency was inconclusive: 31.6 µM [inhibitor, single point]. In the case of `CC1CCC(NC(=O)CCS(=O)(=O)c2ccc3c(c2)oc(=O)n3C)CC1` (stereo not drawn), the Potency is reported as “inactive”. With `Fc1ccc([C@@H]2CCNC[C@H]2COc2ccc3c(c2)OCO3)cc1` the Potency was inconclusive: 31.6 µM [inhibitor, single point] [middle of 5 runs]. For `O=C1/C(=C\c2ccccc2)CCC/C1=C/c1ccccc1`, the Potency was inconclusive: 31.6 µM [inhibitor, single point]. For `COc1ccc(CCNc2nc(N3CCCCC3)nc(N3CCCCC3)n2)cc1OC`, the Potency was “inactive”. For `CCn1c(C)c(P(c2ccccc2)c2ccccc2)[n+]2ccccc12`, the Potency was inconclusive: 37.7 µM [inhibitor, single point]. In the case of `Cc1cccc(NC(=O)c2ccc(-n3cnc4cccnc43)cc2)c1C`, the Potency is reported as “inactive”. With `CN(C)CCCNc1cc(C(C)(C)C)nc2c(-c3ccc(Cl)cc3)cnn12` the Potency was inconclusive: 39.8 µM [inhibitor, single point]. For `CC(C)(C=O)C1=CC(=O)c2ccccc2C1=O`, the Potency was active: 15.8 µM. In the case of `O=c1[nH]c2ccsc2c(=O)n1CCO`, the Potency is reported as inconclusive: 4.74 µM [inhibitor, full curve, poor fit]. In the case of `CN(Cc1ccco1)C(=O)CCc1nc2sc3c(c2c(=O)[nH]1)CCCC3`, the Potency is reported as inconclusive: 5.62 µM [inhibitor, partial curve, poor fit]. With `CN1C(=O)[C@H]2[C@@H](/C=C/c3ccccc3)N3C(=O)CN(Cc4ccc(-c5ccccc5)cc4)C(=O)[C@@]3(C)[C@H]2C1=O` the Potency was inconclusive: 31.6 µM [inhibitor, single point]. In the case of `COc1ccccc1NC(=S)N1CCN(c2nc(-c3ccccc3)cs2)CC1`, the Potency is reported as “inactive”. For `O=C(CN1CCN(S(=O)(=O)N2CCCCC2)CC1)Nc1ccc(Cl)c(Cl)c1`, the Potency was “inactive”. In the case of `Oc1ccc(-c2n[nH]c(=S)n2-c2ccc3c(c2)OCCO3)c(O)c1`, the Potency is reported as inconclusive: 39.8 µM [inhibitor, single point]. In the case of `Cc1ccc2cc(C#N)c(N3CCCN(S(=O)(=O)c4ccccc4)CC3)nc2c1`, the Potency is reported as “inactive”. In the case of `COCCNc1nc(NCCOc2ccccc2Cl)c2sc(-c3ccccc3)cc2n1`, the Potency is reported as “inactive”. With `C=CCOC(=O)C1=C(C)NC(SCC)=C(C#N)C1c1ccc(Cl)cc1` (stereo not drawn) the Potency was active: 15.8 µM. With `CN(C)CCCN(C(=O)c1ccc(S(=O)(=O)N2CCCCCC2)cc1)c1nc2ccc(F)cc2s1` the Potency was inconclusive: 31.6 µM [inhibitor, single point]. With `O=S(=O)(c1ccc(-c2csc(-c3cccnc3)n2)cc1)N1CCCCC1` the Potency was “inactive”. With `COc1ccccc1-n1c(SCC(=O)Nc2ccccc2F)nc2[nH]ncc2c1=O` the Potency was “inactive”. With `O=C(O)CCC(=O)Nc1ccc(Sc2ccc([N+](=O)[O-])cc2)cc1` the Potency was “inactive”. With `CCOC(=O)C1Nc2c(F)cc(C)cc2C2c3ccccc3CC12` (stereo not drawn) the Potency was inconclusive: 17.8 µM [inhibitor, partial curve, poor fit]. With `O=CN/C=C/c1cc(O)ccc1O` the Potency was inconclusive: 22.4 µM [inhibitor, single point]. With `COc1ccc(-c2nc3ccc(NS(=O)(=O)c4ccc(C)cc4)cc3o2)cc1` the Potency was inconclusive: 35.5 µM [inhibitor, single point]. For `CCC(C)(C)n1nnnc1CN1CCN(c2nc3ccc(C)cc3cc2C#N)CC1`, the Potency was inconclusive: 28.2 µM [inhibitor, partial curve, poor fit]. With `O=C(/C=C/c1ccccc1[N+](=O)[O-])c1ccccc1Br` the Potency was inconclusive: 26.7 µM [inhibitor, partial curve, poor fit]. For `CC(C)Cn1c(/C=N/Nc2nc3ccccc3[nH]2)nc2ccccc21`, the Potency was active: 4.47 µM. With `CC1(C)CC(C(CCN(Cc2ccccc2)C(=O)c2ccco2)c2ccc(F)cc2)CCO1` (stereo not drawn) the Potency was inconclusive: 39.8 µM [inhibitor, single point]. For `CCN(CC)c1ccc2cc(NC(=O)CCC(=O)O)c(=O)oc2c1`, the Potency was active: 7.94 µM. In the case of `NC1=NC[C@H](Cc2ccccc2)N1CCc1cc(C(F)(F)F)cc(C(F)(F)F)c1`, the Potency is reported as inconclusive: 31.6 µM [inhibitor, single point]. With `COc1cc2cnc(-c3ccccc3)c(-c3ccc(C#N)cc3)c2cc1OC` the Potency was inconclusive: 39.8 µM [inhibitor, single point]. In the case of `C#CC(=O)N(c1ccc(OC)c(OC)c1)C(C(=O)NC1CCCC1)c1cccs1` (stereo not drawn), the Potency is reported as inconclusive: 39.8 µM [inhibitor, single point]. In the case of `COc1ccc(OC)c(NC(=O)CN(C)S(=O)(=O)c2ccc3[nH]c4c(c3c2)CCCC4)c1`, the Potency is reported as inconclusive: 39.8 µM [inhibitor, single point]. In the case of `COC(=O)c1ccc(C(=O)OC)c(NC(=S)N2CCCCC2C)c1` (stereo not drawn), the Potency is reported as “inactive”. With `N#CCC(=O)N/N=C/c1cccc(Oc2ccccc2)c1` the Potency was “inactive”. With `Cc1ccc(S(=O)(=O)N2C(=O)c3cccc4cccc2c34)cc1` the Potency was inconclusive: 39.8 µM [inhibitor, single point]. In the case of `COC(=O)c1ccc(OCC2c3cc(OC)c(OC)cc3CCN2C(=O)C(C)C)cc1` (stereo not drawn), the Potency is reported as “inactive”. With `CC(=O)N(Cc1ccc(F)cc1)C1=C(NCCc2ccccc2)C(=O)c2ccccc2C1=O` the Potency was active: 12.6 µM. For `O=C1c2cc(F)ccc2-n2c1nc1ccccc1c2=O`, the Potency was inconclusive: 4.47 µM [inhibitor, full curve, poor fit]. For `COc1ccc(C)cc1NC(=O)CSc1nc(=O)n(Cc2ccncc2)c2c1CCC2`, the Potency was inconclusive: 15.8 µM [inhibitor, partial curve, poor fit]. In the case of `COc1ccc(C(=O)NCCc2sc(-c3ccc(Cl)cc3)nc2C)c(OC)c1`, the Potency is reported as inconclusive: 39.8 µM [inhibitor, partial curve, poor fit]. With `Nc1ccc2oc(-c3ccc4nc[nH]c4c3)nc2c1` the Potency was inconclusive: 39.8 µM [inhibitor, single point]. With `CC(C)C1CCC(C(=O)N[C@H](Cc2ccccc2)C(=O)O)CC1` (stereo partly drawn) the Potency was inconclusive: 34.3 µM [inhibitor, partial curve, poor fit]. With `O=C(COC(=O)CCN1C(=O)/C(=C\C=C\c2ccccc2)SC1=S)Nc1ccc(Br)cc1` the Potency was inconclusive: 3.98 µM [inhibitor, partial curve]. In the case of `NS(=O)(=O)c1ccc(CCNC(=O)CN2CCN(S(=O)(=O)c3ccccc3F)CC2)cc1`, the Potency is reported as “inactive”. With `Cc1ccnn1CC(=O)N/N=C/c1ccc([N+](=O)[O-])s1` the Potency was inconclusive: 29.9 µM [inhibitor, partial curve, poor fit]. For `O=C1c2[nH]nc(-c3ccccc3O)c2C(c2ccccc2F)N1Cc1ccncc1` (stereo not drawn), the Potency was “inactive”. For `Cc1cccn2c(=O)c3cc(C(=O)NCCN4CCOCC4)c(=N)n(Cc4ccc(F)cc4)c3nc12`, the Potency was inconclusive: 7.08 µM [inhibitor, full curve, poor fit]. For `CCOC(=O)Cc1ccc(NC(=O)NCc2cccn2Cc2ccccc2)cc1`, the Potency was “inactive”. For `Cc1cc(F)ccc1S(=O)(=O)Nc1ccc2c(c1)CCCN2C(=O)c1cccs1`, the Potency was inconclusive: 39.8 µM [inhibitor, single point]. In the case of `CC(C)CC(COCc1cccc(Cl)c1)N1CCN(C(=O)c2ccc(C(F)(F)F)cc2)CCC1=O` (stereo not drawn), the Potency is reported as “inactive”. For `Cc1cc(C)cc(NC(=O)CCC(=O)Nc2cc(C)on2)c1`, the Potency was inconclusive: 20 µM [inhibitor, single point]. In the case of `CCN(c1ccccc1)S(=O)(=O)c1ccc(C(=O)Nc2nnc(COC)o2)cc1`, the Potency is reported as inconclusive: 39.8 µM [inhibitor, single point]. In the case of `O=C1c2cccc3c2[C@H](CCC3)CN1[C@@H]1CN2CCC1CC2`, the Potency is reported as inconclusive: 39.8 µM [inhibitor, single point]. With `CCCN1Cc2cccc(C(=O)Nc3cc(C)cc(C)c3)c2C1=O` the Potency was “inactive”. In the case of `CN1C(=O)C(CC(=O)Nc2ccc(F)cc2)N(CCCc2ccccc2)C1=S` (stereo not drawn), the Potency is reported as inconclusive: 39.8 µM [inhibitor, partial curve, poor fit]. For `CCOC(=O)C1(CCc2ccccc2)CCN(Cc2ccc(O)cc2)CC1`, the Potency was “inactive”. With `COC(=O)Cc1ccc(NC(=S)N2CCN(c3cc(Cl)ccc3C)CC2)cc1` the Potency was inconclusive: 37.7 µM [inhibitor, partial curve, poor fit]. With `OC(c1ccccc1)(c1ccccc1)C1CCN(CCCOc2ccc3c(c2)CCCC3)CC1` the Potency was active: 17.8 µM. For `Cc1ccc(OCC(=O)N2N=C(C(F)(F)F)CC2(O)C(C)(C)C)cc1C` (stereo not drawn), the Potency was inconclusive: 25.1 µM [inhibitor, single point]. For `O=C(Nc1nnc([C@@H]2C[C@H](O)[C@@H](CO)O2)s1)Nc1ccccc1Oc1ccccc1`, the Potency was “inactive”. With `CCC(CC)c1nn2c(=O)cc(COc3ccc(NC(=O)c4cccc(Cl)c4)cc3)nc2s1` the Potency was “inactive”.
